Structures are written as SMILES. In all, about 110,000 compounds were measured (“z-score”: median about -0.1, highest 2% from about 2 on). Some of the results follow. Activity calls are given as the source filed them.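 The calls were made as follows: active = z-score in the third read window above 3 or below -3; inactive = the rest.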 Non-standard residues stand in square brackets, D forms with d. Residues, ends and D or L forms follow the SMILES beside them. ξ: configuration not given here. *: point of attachment. Cbz = O=C(OCc1ccccc1)*; ξA = CC(N)C(=O)O

This assay addresses Metabotropic glutamate receptor 8 (Rattus norvegicus) (UniProt P70579). Nature of the assay: rat mGluR8 modulators via GIRK flux, primary screen, cell-based, thallium flux, HTS (AID 488969). To be noted: HEK293 rat mGluR8, GIRK (G protein-gated inwardly rectifying potassium channel) thallium flux, FluoZin2; at 10 µM; stronger effect = higher value; submaximal glutamate (EC20) added with thallium.
Chain of UniProt P70579 (P70579 whole entry, looked up): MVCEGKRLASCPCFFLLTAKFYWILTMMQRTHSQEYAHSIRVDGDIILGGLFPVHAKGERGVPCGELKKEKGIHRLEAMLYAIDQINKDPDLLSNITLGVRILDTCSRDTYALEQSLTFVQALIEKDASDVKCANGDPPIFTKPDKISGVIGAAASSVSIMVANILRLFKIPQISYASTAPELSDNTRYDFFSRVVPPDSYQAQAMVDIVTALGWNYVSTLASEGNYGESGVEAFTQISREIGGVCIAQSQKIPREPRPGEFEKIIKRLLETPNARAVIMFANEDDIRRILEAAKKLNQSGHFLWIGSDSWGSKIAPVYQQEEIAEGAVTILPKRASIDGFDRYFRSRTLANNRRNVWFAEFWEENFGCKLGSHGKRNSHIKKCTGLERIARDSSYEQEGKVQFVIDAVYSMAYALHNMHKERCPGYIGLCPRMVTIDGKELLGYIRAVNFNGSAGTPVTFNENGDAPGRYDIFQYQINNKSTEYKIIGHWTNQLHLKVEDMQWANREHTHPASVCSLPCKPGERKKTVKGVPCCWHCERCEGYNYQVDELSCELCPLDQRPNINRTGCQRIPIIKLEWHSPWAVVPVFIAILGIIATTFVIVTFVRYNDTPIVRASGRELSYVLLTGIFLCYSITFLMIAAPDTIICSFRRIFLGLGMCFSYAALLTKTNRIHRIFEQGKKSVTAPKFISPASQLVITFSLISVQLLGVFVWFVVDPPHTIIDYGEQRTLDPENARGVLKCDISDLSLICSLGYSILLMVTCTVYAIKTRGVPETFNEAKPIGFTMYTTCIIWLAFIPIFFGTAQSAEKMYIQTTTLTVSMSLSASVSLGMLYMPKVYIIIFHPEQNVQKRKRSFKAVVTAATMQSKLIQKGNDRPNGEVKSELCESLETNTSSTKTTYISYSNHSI
As for `O=C(N/N=C/c1sc2ccccc2c1O)c1cccc2ccccc12`, the z-score came out at 1.11.

In turn, `COc1ccccc1/C=N/NC(=O)c1nnn(-c2nonc2N)c1CSC1=NCCS1` yielded a z-score of -0.162.

The molecule `Cc1ccc(C)c(NC(=S)c2ccccn2)c1` gave a z-score of -0.333.

With `Cc1c(S(=O)(=O)Nc2cccc(Cl)c2)c(=O)n(C)c(=O)n1C`, the z-score was 0.101.

As to `CCCNC(=S)NC1CC2CCCC(C1)N2CC(C)C` (stereo not given), the z-score is -0.137.

In turn, `O=C(OCc1nnc(-c2ccccc2)o1)c1ccc2c(c1)OCCO2` came in with a z-score of -0.434.

For `COc1ccc(C(C(=O)NC2CCCC2)N(C(=O)c2ccoc2C)c2ccccc2)cc1` (stereo not given), the z-score is -0.161.

`O=C(CCNC(=O)c1ccc(Br)o1)NCc1ccccc1Cl` showed a z-score of -0.183.

Molecule `Cc1cc(C)nc(SCc2csc(N)n2)n1` displayed a z-score of -0.365.

For `CCOC(=O)n1c(=O)n(Cc2ccc(Cl)c(Cl)c2)c2ccccc21`, the z-score is -0.535.

For `O=[N+]([O-])c1ccc(COc2ccc(-c3[nH]ncc3-c3ccc(Cl)cc3)c(O)c2)cc1`, the z-score was -0.184.

As for `O=C(C1CCC(CNS(=O)(=O)c2cccs2)CC1)N1CCCCC1` (stereo not given), the z-score worked out at 0.488.

For the molecule `CCOc1ccc2[nH]c(=O)c(CN(CCc3ccccc3)C(=O)N3CCOCC3)cc2c1`, the z-score is -0.459.

`O=C(Cn1cc([N+](=O)[O-])cn1)NCC1CCCO1` (stereo not given): the z-score turned out to be 0.0785.

`Cn1c(=N)n(CC(=O)C(C)(C)C)c2ccccc21` came in with a z-score of 0.00661.

On to `CCCCNC(=O)/C(C#N)=c1\s/c(=C\c2ccccc2OC(F)F)c(=O)n1CCCOC`, for which the z-score is -0.191.

For `O=C(NCc1ccccc1)c1ccc(-c2ccccc2F)o1`, the z-score is active: -3.25.

Regarding `Cc1nn(C(C)(C)C)c(OC(=O)c2ccc3c(c2)OCO3)c1Sc1ccccc1`, the z-score is 0.0484.

The molecule `COC(=O)[C@@H](NC(=O)NCc1ccccc1F)C(C)C` showed a z-score of -0.026.

`COc1ccc(OC)c(N(CC(=O)N2CCN(c3cc(Cl)ccc3C)CC2)S(C)(=O)=O)c1` returned a z-score of 0.911.

With `CC(C)(O)C(=O)NN(C(=O)c1ccccc1)c1cccc(Br)c1`, the z-score stood at 0.292.

`CCOc1ccc(C(=O)NCC(=O)OC2CCOC2=O)cc1OCC` (stereo not given): the z-score was -0.823.

For `COc1cc(C2CC(=O)N3CN(Cc4ccco4)CSC3=C2C#N)ccc1OCc1ccccc1` (stereo not given), the z-score is -0.175.

For the molecule `CNC(=O)CC12CC3CC(CC(C3)C1)C2`, the z-score came out at 0.549.

Take `O=C(c1ccccc1)N1CCC(O)(c2ccc3c(c2)OCO3)CC1`: the z-score came to 0.951.

The molecule `CCOC(=O)c1c(NC(=O)COC)sc2c1CCCC2` returned a z-score of -1.83.

With `Cc1ccc(C(=O)CCCn2nnc(-c3cccnc3)n2)cc1C`, the z-score is -0.153.

The molecule `CCOC(=O)CC1C(C(=O)OCC)ON2OC(C(=O)OC)C(C(=O)OCC)C12` (stereo not given) gave a z-score of -0.526.

In turn, `CCOc1ccc(NC(=O)CC2C(=O)N(c3ccccc3)C(=O)N2CCc2cccs2)cc1` (stereo not given) yielded a z-score of -0.174.

For the molecule `CCOC(=O)c1ccc(N2C(=O)CC(N3CCOCC3)C2=O)cc1` (stereo not given), the z-score is -0.0659.

Consider `Cc1cccc(NC(=O)c2ccccc2O)c1C`, for which the z-score is -0.151.

`c1ccc(CNc2nc3ccccc3n3cnnc23)cc1`: the z-score was -0.114.

Molecule `O=C(NCc1ccco1)C1Cc2ccccc2CN1S(=O)(=O)c1ccccc1F` (stereo not given) yielded a z-score of -0.134.

`CS(=O)(=O)N(CC(=O)Nc1c(F)cccc1F)c1cccc([N+](=O)[O-])c1` came in with a z-score of 0.0303.

Molecule `CCNC(=O)c1ccc(-n2nc(C)cc2-c2ccccc2)cc1` had a z-score of -0.263.

For the molecule `O=C(Nc1ccc(Cl)cc1)Nc1nnc(Cc2ccc([N+](=O)[O-])cc2)s1`, the z-score turned out to be 0.113.

In turn, `CC1CCCC(NC(=O)COC(=O)[C@@H]2CC(O)CN2S(=O)(=O)c2ccc3c(c2)OCCO3)C1C` (stereo not given in full) yielded a z-score of -0.166.

Regarding `COc1ccccc1CNC(=O)c1ccc(OC(F)F)c(OC)c1`, the z-score was -0.587.

Molecule `CCN(CC)c1ccc(CN(C(=O)c2ccco2)C2CCS(=O)(=O)C2)cc1` (stereo not given) gave a z-score of 0.0162.

`Cc1ccc(Cn2c(=O)n(CCC(=O)NCc3ccc4c(c3)OCO4)c(=O)c3ccccc32)cc1`: the z-score was -0.259.

In turn, `COC(=O)C1=C(C)NC(=O)NC1/C=C/c1ccccc1` (stereo not given) had a z-score of 0.476.

In the case of `O=C(Nc1cccc(C(=O)O)c1)/C(=C\c1ccccc1)NC(=O)c1ccccc1Cl`, the z-score is -0.157.

As to `Nc1[nH]n2c(=O)cc(-c3ccccc3)nc2c1N=Nc1ccccc1`, the z-score was -0.256.

Molecule `CCOC(=O)c1cc(-c2ccccc2)nc2nc(N3CCCCC3)sc12` returned a z-score of -0.0211.

In turn, `CCOc1ccc(C(F)(F)F)cc1NC(C)=O` yielded a z-score of 0.301.

`COC(=O)CNC(=O)C(C)NC(=O)CNC(=O)OCc1ccccc1` (stereo not drawn) (Cbz-Gly-[ξA]-Gly-OMe) gave a z-score of 0.642.

Consider `COc1ccc(-c2nn(C)c(=O)c3ccccc23)cc1NC(=O)COc1ccccc1`, for which the z-score was -0.615.

Regarding `Cc1ccc(NC(=O)CS(=O)CC(=O)NCCCc2ccccc2)cc1Cl` (stereo not given), the z-score was -0.113.

`CSc1nn(CCc2ccncc2)c(=S)s1` displayed a z-score of 1.18.

Turning to `Cc1cc(=O)[nH]c(SCC(=O)Nc2cccc(C(F)(F)F)c2)n1`, the z-score is -0.601.

For the molecule `CCc1ccc(OCC(=O)NNC(=O)CSc2ncnc3sc(C)c(C)c23)cc1`, the z-score worked out at 0.487.

Consider `CC1CCc2nc3ccc(S(=O)(=O)N4CCC(C(=O)N5CCCCC5)CC4)cc3c(C(=O)O)c2C1` (stereo not given), for which the z-score is -0.166.

For the molecule `COC(=O)c1ccccc1NC(=S)N(Cc1ccc2c(c1)OCO2)Cc1cc2cc(OC)ccc2[nH]c1=O`, the z-score was -0.529.

`CCOC(=O)c1c(C)oc2ccc(NS(=O)(=O)c3cccs3)cc12` came in with a z-score of 0.15.

With `Cc1ccc(C)c(NC(=S)NCCSc2ccc(Cl)cc2)c1`, the z-score amounted to 0.0299.

For the origin of these results see PubChem BioAssay AID488969 (Vanderbilt High Throughput Screening Facility, 2010).
